From EPA's CvTdb concentration-time database
The source gives many values for each of these; only a part stands here.

Key:
Assay in all cases: concentration in plasma after dosing
Rat [1] = conditions: dosed: Anthraquinone, 2 mg/kg, iv, Male, Harlan Sprague Dawley
Rat [2] = conditions: dosed: Anthraquinone, 2 mg/kg, iv, Male, Harlan Sprague Dawley; remark: listed apart in the source
Rat [3] = conditions: dosed: Anthraquinone, 400 mg/kg, oral, Female, F344
Rat [4] = conditions: dosed: Anthraquinone, 400 mg/kg, oral, Female, F344; remark: listed apart in the source
Rat [5] = conditions: dosed: Anthraquinone, 2 mg/kg, iv, Male, Harlan Sprague Dawley; remark: listed apart in the source
Rat [6] = conditions: dosed: Anthraquinone, 400 mg/kg, oral, Male, F344
Rat [7] = conditions: dosed: Anthraquinone, 2 mg/kg, iv, Male, Harlan Sprague Dawley; remark: listed apart in the source
Rat [8] = conditions: dosed: Anthraquinone, 2 mg/kg, iv, Male, Harlan Sprague Dawley; remark: listed apart in the source
Rat [9] = conditions: dosed: Anthraquinone, 2 mg/kg, iv, Male, Harlan Sprague Dawley; remark: listed apart in the source
Rat [10] = conditions: dosed: Anthraquinone, 2 mg/kg, iv, Male, Harlan Sprague Dawley; remark: listed apart in the source
Rat [11] = conditions: dosed: Anthraquinone, 400 mg/kg, oral, Female, F344; remark: listed apart in the source
Rat [12] = conditions: dosed: Anthraquinone, 2 mg/kg, iv, Male, Harlan Sprague Dawley; remark: listed apart in the source
Rat [13] = conditions: dosed: Anthraquinone, 2 mg/kg, iv, Male, Harlan Sprague Dawley; remark: listed apart in the source
Rat [14] = conditions: dosed: Anthraquinone, 2 mg/kg, iv, Male, Harlan Sprague Dawley; remark: listed apart in the source
Rat [15] = conditions: 2 min; dosed: Anthraquinone; 2 mg/kg; iv; Male; Harlan Sprague Dawley
Rat [16] = conditions: dosed: Anthraquinone, 400 mg/kg, oral, Male, F344; remark: listed apart in the source
Rat [17] = conditions: dosed: Anthraquinone, 2 mg/kg, iv, Male, Harlan Sprague Dawley; remark: listed apart in the source
Rat [18] = conditions: dosed: Anthraquinone, 400 mg/kg, oral, Female, F344; remark: listed apart in the source
Rat [19] = conditions: dosed: Anthraquinone, 2 mg/kg, iv, Male, Harlan Sprague Dawley; remark: listed apart in the source
Rat [20] = conditions: dosed: Anthraquinone
Rat [21] = conditions: dosed: Anthraquinone, 2 mg/kg, iv, Male, Harlan Sprague Dawley; remark: listed apart in the source
Rat [22] = conditions: dosed: Anthraquinone, 2 mg/kg, iv, Male, Harlan Sprague Dawley; remark: listed apart in the source
Rat [23] = conditions: dosed: Anthraquinone, 2 mg/kg, iv, Male, Harlan Sprague Dawley; remark: listed apart in the source
Rat [24] = conditions: dosed: Anthraquinone, 400 mg/kg, oral, Female, F344; remark: listed apart in the source
Rat [25] = conditions: 1 h; dosed: Anthraquinone; 2 mg/kg; iv; Male; Harlan Sprague Dawley
Rat [26] = conditions: dosed: Anthraquinone, 400 mg/kg, oral, Female, F344; remark: listed apart in the source
Rat [27] = conditions: dosed: Anthraquinone, 400 mg/kg, oral, Female, F344; remark: listed apart in the source
Rat [28] = conditions: dosed: Anthraquinone, 2 mg/kg, iv, Male, Harlan Sprague Dawley; remark: listed apart in the source
Rat [29] = conditions: dosed: Anthraquinone, 2 mg/kg, iv, Male, Harlan Sprague Dawley; remark: listed apart in the source
Rat [30] = conditions: dosed: Anthraquinone, 400 mg/kg, oral, Female, F344; remark: listed apart in the source
Rat [31] = conditions: dosed: Anthraquinone, 2 mg/kg, iv, Male, Harlan Sprague Dawley; remark: listed apart in the source
Rat [32] = conditions: dosed: Anthraquinone, 2 mg/kg, iv, Female, Harlan Sprague Dawley

O=C1c2ccccc2C(=O)c2ccccc21 [Anthraquinone]
Conditions	concentration in plasma [ng/mL]
Rat [1], 2 min	4580
Rat [1], 10 h	51
Rat [2], 2 h	84
Rat [2], 40 min	202
Rat [3], 1 h	220
Rat [3], 18 h	3920
Rat [4], 1 h	208
Rat [4], 18 h	2460
Rat [5], 2 min	4180
Rat [5], 10 h	42
Rat [6], 4 h	412
Rat [6], 8 h	1600
Rat [7], 1 h	197
Rat [7], 2 h	73
Rat [8], 2 min	2270
Rat [8], 10 h	46
Rat [9], 1 h	137
Rat [9], 40 min	147
Rat [10], 5 h	81
Rat [10], 20 min	448
Rat [11], 2 h	231
Rat [11], 12 h	2550
Rat [12], 7.5 h	60
Rat [12], 10 min	1060
Rat [13], 2 h	68
Rat [13], 40 min	242
Rat [14], 1 h	168
Rat [14], 40 min	221
Rat [16], 4 h	628
Rat [16], 8 h	1830
Rat [17], 5 h	79
Rat [17], 20 min	425
Rat [18], 2 h	403
Rat [18], 12 h	3270
Rat [19], 1 h	165
Rat [19], 2 h	112
Rat [21], 7.5 h	44
Rat [21], 10 min	681
Rat [22], 5 h	63
Rat [22], 20 min	353
Rat [23], 7.5 h	59
Rat [23], 10 min	850
Rat [24], 4 h	393
Rat [24], 8 h	1500
Rat [26], 4 h	395
Rat [26], 8 h	2220
Rat [27], 0.5 h	138
Rat [27], 24 h	2390
Rat [28], 2 h	79
Rat [28], 40 min	272
Rat [29], 5 h	75
Rat [29], 20 min	442
Rat [30], 0.5 h	183
Rat [30], 24 h	2920
Rat [31], 5 h	88
Rat [31], 20 min	443
Rat [32], 7.5 h	43
Rat [32], 10 min	693

Conditions	concentration in plasma [ng/mL]
Rat [15]	1310
Rat [25]	184

concentration in plasma [ng/mL], Rat [20]
Conditions	Female	Male
0.5 h, 400 mg/kg, oral, F344	106	–
1 h, 2 mg/kg, iv, Harlan Sprague Dawley	–	199
1 h, 400 mg/kg, oral, F344	162	–
2 h, 2 mg/kg, iv, Harlan Sprague Dawley	–	135
2 h, 400 mg/kg, oral, F344	318	236
2 min, 2 mg/kg, iv, Harlan Sprague Dawley	4080	2200
4 h, 400 mg/kg, oral, F344	638	419
5 h, 2 mg/kg, iv, Harlan Sprague Dawley	–	70
7.5 h, 2 mg/kg, iv, Harlan Sprague Dawley	33	43
8 h, 400 mg/kg, oral, F344	2260	1700
10 min, 2 mg/kg, iv, Harlan Sprague Dawley	557	1040
12 h, 400 mg/kg, oral, F344	2860	2060
18 h, 400 mg/kg, oral, F344	2870	–
20 min, 2 mg/kg, iv, Harlan Sprague Dawley	–	543
24 h, 400 mg/kg, oral, F344	2890	–
40 min, 2 mg/kg, iv, Harlan Sprague Dawley	–	289
